Measurements published in PubChem BioAssay AID743279 (National Center for Advancing Translational Sciences (NCATS), 2014).
Out of some 360,000 compounds screened, about 17,000 (4.7%) were called active. The shares of active, inactive and inconclusive entries below differ from those in the screen. No stated cut-off is given here; in the data, active means activity change below about -50%; inconclusive means mostly about -30% to -49%; inactive means weaker than that.

Test: qHTS for Inhibitors of Inflammasome Signaling: IL-1-beta AlphaLISA Primary Screen
Conditions: THP-1 LPS/ATP IL-1B secretion, 16 h; at 57.5 µM, stronger effect = lower value
Summary of the method: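 Secreted IL-1B measured by AlphaLISA bead assay after 16 h compound exposure of THP-1 cells; compounds (final up to 57.5 uM) added 1 h before LPS (250 ng/mL) and ATP (1.25 mM) stimulation; lower signal means less secretion.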
On the % scale 0 is the no-effect control and ±100 the full control effect.

Activity change, inconclusive:
COc1ccc(CCNCc2ccccc2N2CCCC2)cc1 -37.9%, Cc1sc2ncnc(NC3CCN(Cc4ccccc4)CC3)c2c1C -44.6%, CN(Cc1cccnc1)Cc1cn[nH]c1-c1ccc(-c2ccccc2)cc1 -30.1%, COc1cc(C(=O)NCc2ccncc2)cc(Br)c1OCc1ccccc1 -31.5%, COc1ccc(NC2=Nc3cccc4cccc2c34)cc1OC -34.8%, CCOC(=O)N1CCN(C(=O)CCCn2nc(C)c3sc4ccccc4c3c2=O)CC1 -49.6%, COc1ccc(Cn2cccc(NC(=O)Nc3ccc(F)cc3)c2=O)cc1 -33.1%, COc1ccc(-n2nc(C(=O)NCC(=O)N3CC(C)CC(C)C3)c3ccccc3c2=O)cc1OC (stereo unspecified) -33.5%, C/C(=C\C=C(C#N)C#N)c1cc(C#N)c(N)o1 -48.7%, C[C@H](NC(=O)c1nc[nH]c1C(=O)N[C@@H](C)C(=O)OC(C)(C)C)C(=O)OC(C)(C)C -30.8%, CCc1ccc(C2CC(=O)NC(SCC(=O)OC(C)C)=C2C#N)cc1 (stereo unspecified) -39.9%, COc1ccc(CS(=O)(=O)CC(C)(O)c2ccccc2Cl)cc1 (stereo unspecified) -32%, Cc1cc(C)cc(Nc2cnn(C34CC5CC(CC(CC(=O)O)(C5)C3)C4)c(=O)c2Cl)c1 -38.1%, O=C(Nc1cccc(O)c1)c1cc(-c2ccccc2Cl)on1 -42.9%, COc1cc2c(cc1NC(=O)c1ccc3c(c1)OCO3)oc1ccccc12 -43.2%, O=[N+]([O-])c1ccc(CNc2ccc(Cl)cc2)s1 -44.5%, CCc1nc2ccc(C(=O)Nc3cc(-c4ccccc4)ccc3OC)cn2c1N(CCN(C)C)CC1CC1 -34.6%, COc1cc(/C=C/[N+](=O)[O-])ccc1OC(=O)/C=C/c1ccc(F)cc1 -46.2%, COc1ccccc1Cc1c(-c2ccco2)nc2ccc(C)cn12 -37.1%, O=C1/C(=C/c2cccc(Cl)c2)SC(=S)N1CCC(=O)N1CCCCC1CCO (stereo unspecified) -48.2%, CCCOc1ccc(F)cc1-c1cc(C(=O)NCc2ccccc2)[nH]n1 -45.3%, COc1ccc(CNc2nc3ccccc3n2Cc2ccccc2)cc1OC -35.6%, Cn1c(=O)c2c(ncn2CC(=O)NC2CCCCC2)n(C)c1=O -45%, COc1cc2[nH]c(=O)n(CCCCCC(=O)NCCc3c[nH]c4ccccc34)c(=O)c2cc1OC -33.1%, CCCCCCCNC(=O)C1(CC2CC(c3ccc(Cl)cc3)=NO2)CCN(C(=O)CCCCCBr)CC1 (stereo unspecified) -44.1%, CCc1nnc(NC(=O)c2ccc(NC(=O)C(C)C)cc2)s1 -38.8%, CC(C)N(C(=O)c1ccc2nc(-c3ccccc3)c(-c3ccccc3)nc2c1)C(C)C -44.4%, COc1ccc(NC(=O)Nc2nc3ccccc3s2)cc1 -39.3%, CC1CCN(c2c(NCC3CCC(C(=O)NCCc4ccc(Cl)cc4)CC3)c(=O)c2=O)CC1 (stereo unspecified) -34.7%, CN(C)S(=O)(=O)Oc1ccc(C(=O)Nc2cccc(C(F)(F)F)c2)cc1 -31.4%, Cc1ccc(NC(=O)CCOc2ccccc2)c(C)c1 -33.9%, COc1ccccc1C(=O)Nc1ccc(OC(C)C(=O)N2CCOCC2)cc1 (stereo unspecified) -38.3%, COc1ccc(OC)c(-c2csc(NC(=O)c3ccccc3F)n2)c1 -34.1%, Cn1c2ccccc2c2cc(/C=N/NC(=O)c3ccc(N)cc3)ccc21 -43%, OC(c1ccc2c(c1)OCO2)c1nccc2ccccc12 (stereo unspecified) -45.8%, CC(C)(C)c1ccc(Oc2ccc(N)cc2)cc1 -30.4%, O=[N+]([O-])c1ccc2nc(-c3ccc(Cl)cc3)[nH]c2c1 -33.3%, O=C(/C=C/c1ccc(Br)cc1)N1CCN(c2cccc(C(F)(F)F)c2)CC1 -41.5%

Activity change, inactive:
CC(C)(C)OC(=O)C[C@@H]1C/C=C\C[C@@H](CC(=O)NCCO)C(=O)N2CCC[C@H]2COC1=O 37.1%, O=C(Nc1nnc(S(=O)(=O)N2CCCC2)s1)c1cccc([N+](=O)[O-])c1 0%, O=C(NC1CCCc2ccccc21)c1n[nH]c(=O)c2ccccc12 (stereo unspecified) -7.63%, CC1CN(Cc2ccccc2)C(C)CC1O (stereo unspecified) 12.9%, O=C(NCCc1ccccc1)C(c1cccs1)N(C(=O)c1csnn1)C1CC1 (stereo unspecified) -7.79%, COCCN(CC(=O)Nc1cccc(C)c1C)C(=O)Cn1c(=O)cnc2ccccc21 4.34%, COC(=O)[C@@]12C[C@@H](CC(=O)NCCCN3CCCC3=O)C(=O)N(Cc3cccc4ccccc34)C1=CCC(C)(C)C2 -24.1%, Cc1cc(C(=O)Cn2nc(C(=O)O)c3ccccc3c2=O)c(C)n1CC(F)(F)F -2.02%, O=C(CCN1CCN(c2ccccc2F)CC1)Nc1ccccc1F -0.895%, Cc1ccc(-n2nnnc2SCC(=O)Nc2cc(C)on2)c(C)c1 -2.83%, CC1(C)CC(=O)C=C(c2cccc(OC(=O)c3ccc(Br)cc3)c2)C1=O 34%

Activity change, active:
C=CCN(CC=C)CCOc1cccc2ccccc12 -57.4%, O=C(c1ccc(N2CCN(C(=O)c3ccccc3)CC2)cc1)c1cccc(F)c1 -76.9%, COc1cccc(CNc2nc(NCc3ccccc3OC)nc3ccsc23)c1 -75.5%, O=c1c(Cl)cc(Cl)nn1-c1ccccc1 -100%, Cc1ccc(CN=C(N)Nc2nc(C)cc(C)n2)cc1 -52.1%, CC(=O)Nc1ccc(Sc2ccc([N+](=O)[O-])o2)cc1 -97.3%, c1ccc(-c2nc(N3CCCCCC3)c3ccccc3n2)nc1 -84.3%
